Assay results reported in the supplement of paper PMC12645437, “Orthogonal IMiD-Degron Pairs Induce Selective Protein Degradation in Cells” (ACS Chemical Biology, 2025).
The other results are listed elsewhere or left out.

Biological target: no compound (DMSO)
Assay: log2 fold change of degron read counts, EGFP-low vs EGFP+ sorted cells; higher = lower degron-EGFP level without compound (poor expression or instability)
Conditions: compound: DMSO control; 18 h
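Also: jurkat cells carrying a lentiviral library of mutant zinc finger degrons fused to EGFP plus mCherry, mCherry+ cells FACS sorted, degron abundance counted by next-generation sequencing.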

Row | Sequence | log2 fold change of degron read counts
1 | FCCNVCGAAFTQKGNLLRHIKL | -1.39
2 | FMCEVCGAQFTQKGNLLRHIKL | -1.74
3 | FNCEICGAQFTQKGNLLRHIKL | -1.66
4 | FTCPICGHFFTQKGNLLRHIKL | 0.321
5 | FTCNICGASFTQKGNLLRHIKL | -1.13
6 | FYCEQCGAVFTQKGNLLRHIKL | -1.36
7 | FHCSVCGHWFTQKGNLLRHIKL | 0.685
8 | FACDVCGAHFTQKGNLLRHIKL | -1.09
9 | FWCNQCGRTFTQKGNLLRHIKL | 0.985
10 | FDCEICGRPFTQKGNLLRHIKL | -0.596
11 | FHCPVCGAIFTQKGNLLRHIKL | -0.381
12 | FGCDVCGAIFTQKGNLLRHIKL | 0.0708
13 | FMCEQCGALFTQKGNLLRHIKL | -0.995
14 | FRCPICGACFTQKGNLLRHIKL | -0.277
15 | FKCEICGHSFTQKGNLLRHIKL | -2.43
16 | FRCNQCGHMFTQKGNLLRHIKL | -0.0929
17 | FECNQCGRVFTQKGNLLRHIKL | -1.31
18 | FYCEICGHWFTQKGNLLRHIKL | 0.275
19 | FVCPQCGAYFTQKGNLLRHIKL | -0.423
20 | FMCDICGARFTQKGNLLRHIKL | -0.691
21 | FQCNICGAWFTQKGNLLRHIKL | 0.064
22 | FFCDQCGAIFTQKGNLLRHIKL | -0.124
23 | FWCPICGAGFTQKGNLLRHIKL | 1.59
24 | FTCNVCGAPFTQKGNLLRHIKL | 0.265
25 | FKCDVCGAHFTQKGNLLRHIKL | -1.06

Row | Sequence | log2 fold change of degron read counts
26 | LMCPICGFMCTQKGNLLRHIKL | 1.13
27 | FTCPICGHMFTQKGNLLRHIKL | 0.421
28 | FLCPICGHWFTQKGNLLRHIKL | 0.237
29 | FLCNICGASFTQKGNLLRHIKL | -0.626
30 | FVCEQCGASFTQKGNLLRHIKL | -2.34
31 | FKCSVCGHGFTQKGNLLRHIKL | -0.539
32 | FKCDVCGATFTQKGNLLRHIKL | -1.42
33 | FYCPQCGAEFTQKGNLLRHIKL | -0.818
34 | FQCNQCGANFTQKGNLLRHIKL | -0.755
35 | FDCDVCGAWFTQKGNLLRHIKL | 0.377
36 | FSCDQCGARFTQKGNLLRHIKL | -0.829
37 | FMCNICGAMFTQKGNLLRHIKL | -0.278
38 | FSCNVCGAVFTQKGNLLRHIKL | -1.26
39 | FLCPICGRSFTQKGNLLRHIKL | -0.317
40 | FVCPICGAGFTQKGNLLRHIKL | -0.617
41 | FMCNICGAAFTQKGNLLRHIKL | -0.557
42 | LECPICGFMCTQKGNLLRHIKL | 0.37
43 | FKCEICGHFFTQKGNLLRHIKL | -0.477
44 | LMCNQCGFWCTQKGNLLRHIKL | 1.7
45 | FDCNQCGALFTQKGNLLRHIKL | 0.236
46 | FMCEICGAIFTQKGNLLRHIKL | -0.929
47 | FMCNQCGAKFTQKGNLLRHIKL | -0.317
48 | FKCPICGHNFTQKGNLLRHIKL | -0.539
49 | FECEICGRMFTQKGNLLRHIKL | -1.44
50 | FSCNQCGRGFTQKGNLLRHIKL | -0.284
